In US11001590B2, “Pyrazolopyrimidine derivatives” (BAYER ANIMAL HEALTH GMBH, priority 2016, dated 2021):
Some entries share one result that the patent states for a list of compounds. At least one compound was matched to its structure with a doubt left.

Legend:
Details in all cases: reduction of motility vs negative control; 72 h incubation
[1] = tested on: Dirofilaria immitis microfilariae; assay: In vitro assay 3: Dirofilaria immitis microfilariae (DIROIM L1), motility
[2] = tested on: Dirofilaria immitis third-stage larvae; assay: In vitro assay 4: Dirofilaria immitis (DIROIM L4), motility of larvae
[3] = tested on: Litomosoides sigmodontis third-stage larvae; assay: In vitro assay 7: Litomosoides sigmodontis L3 (LTMOSI), motility

Row | SMILES | EC50 [1] | EC50 [2] | EC50 [3]
1 | Cc1nn2c(C(C)C)c(C(=O)N[C@H]3CCOc4ccccc43)cnc2c1-c1ccc(Cl)c(Cl)c1 [Example 230] | < 0.1 ppm | < 0.1 ppm | < 0.1 ppm
2 | COc1ccc(F)c(-c2c(C)nn3c(C(C)C)c(C(=O)N[C@H]4CCOc5ccccc54)cnc23)c1Cl [Example 233] | < 1 ppm | < 0.1 ppm | < 0.1 ppm
3 | COc1c(F)cc(F)c(-c2c(C)nn3c(C(C)C)c(C(=O)N[C@H]4CCOc5ccccc54)cnc23)c1F [Example 235] | < 0.1 ppm | < 0.1 ppm | < 0.1 ppm
4 | Cc1nn2c(C(C)C)c(C(=O)N[C@H]3CCOc4ccccc43)cnc2c1-c1ccc(F)c(N(C)C)c1F [Example 283] | < 0.1 ppm | < 0.1 ppm | < 0.1 ppm
5 | COc1c(F)cc(F)c(-c2c(C)nn3c(C4CC4)c(C(=O)N[C@H]4CCOc5ccccc54)cnc23)c1F [Example 482] | < 0.1 ppm | < 0.1 ppm | < 0.1 ppm
6 | CCc1c(C(=O)N[C@H]2CCOc3ccccc32)cnc2c(-c3c(F)ccc(Cl)c3F)c(C)nn12 [Example 489] | < 0.1 ppm | < 0.1 ppm | < 0.1 ppm
7 | Cc1nn2c(N3CCOCC3)c(C(=O)N[C@H]3CCOc4ccccc43)cnc2c1-c1c(F)ccc(Cl)c1F [Example 545] | < 0.1 ppm | < 0.1 ppm | < 0.1 ppm
8 | Cc1nn2c(N(C)C)c(C(=O)N[C@H]3CCOc4ccccc43)cnc2c1-c1cccc(F)c1F [Example 549] | < 0.1 ppm | < 0.1 ppm | < 0.1 ppm
9 | Cc1nn2c(N(C)C)c(C(=O)N[C@H]3CCOc4ccccc43)cnc2c1-c1cccc(Cl)c1F [Example 552] | < 0.1 ppm | < 0.1 ppm | < 0.1 ppm
